Legend:
Type in all cases: in vivo
[1] = system: LPS-induced pulmonary inflammation in male Swiss Webster mice; experiment: Absolute total nucleated cells in lung lavage (BAL), LPS-induced lung inflammation model; conditions: vs vehicle disease control
Procedure: (§1) All animals survived to study termination.
(§2) After euthanasia, a 20 G blunt-tipped needle was inserted into the trachea, and the lungs were washed 3 times with 0.8 mL of sterile saline. The samples were pooled into a 15-mL flip-top conical tube and kept on ice. The BAL was spun at 400 g for 5 minutes at 4° C., and supernatant was aspirated and aliquoted (≥100 L/mouse for Luminex, ≥100 μL/mouse for protein assay, and remainder). The cell pellet was resuspended in 1 mL sterile saline and counted via Luna-FL™. Absolute cell counts are included in Table 3. After the cell count, 100 μL of the cell suspension was spun down in a Cytospin® collection funnel with an attached slide. The slides were fixed followed by staining with a Diff-Quick stain. The cell differentiation counts were quantified under a light microscope.

[2] = system: LPS-induced pulmonary inflammation in male Swiss Webster mice; experiment: Lung histopathology in LPS-induced lung inflammation model; conditions: for lung histopathology: 8 hours post-LPS
Procedure: as §1
Following lavage, whole lungs were infused with approximately 0.8 mL of neutral buffered formalin (NBF) via the trachea then excised and placed in 10% NBF at room temperature for histology.
Lungs are collected into formalin, routinely processed, sectioned longitudinally for maximum area visualization, and stained with hematoxylin and eosin (H & E). The entire section of lung is evaluated by light microscopy by a board-certified pathologist.
Peribronchiolar/perivascular Lymphoid Inflammation (BALT): The widths of lymphoid cell infiltrates of five of the most severely-affected areas are measured, and a mean is determined.
Interstitial Inflammation Score: The approximate percentage of lung affected by inflammation is evaluated and scored as follows: • 0=None • 0.5=Very minimal, ≤5% • 1=Minimal, 6-10% • 2=Mild, 11-25% • 3=Moderate, 26-50% • 4=Marked, 51-75% • 5=Severe, >75%
Neutrophil Percent and Neutrophil Score: Inflammatory cell infiltrates are evaluated for approximate percent of neutrophils in the total infiltrate, rounded to 0, 10, 25, 50, or 75 percent. This value is then multiplied by the inflammation score to determine the neutrophil score.
Peribronchiolar/perivascular Edema Score: Peribronchiolar/perivascular widening by edema of five of the most severely-affected areas are measured, and a mean is determined. A score is assigned based on that mean as follows: • 0=None • 0.5=Very minimal, ≤25 microns • 1=Minimal, 26-50 microns • 2=Mild, 51-75 microns • 3=Moderate, 76-100 microns • 4=Marked, 101-150 microns • 5=Severe, >150 microns
Airway Epithelial Damage Score: Lungs are scored for the degree of airway epithelial damage, according to the worst lesion present, as follows: • 0=None; normal intact airway epithelium • 1=Elongation and distortion of the cuboidal/columnar epithelial cells lining the airways • 2=Elongation associated with in folding of the epithelium and narrowing of the airway lumen • 3=Loss of epithelial cells resulting in broken airways
Histopathology Sum: A sum of all the above scores is calculated.

[3] = system: LPS-induced pulmonary inflammation in male Swiss Webster mice; experiment: Lung lavage (BAL) cell differentials in LPS-induced lung inflammation model; conditions: vs vehicle disease control; for macrophages per milliliter in BAL fluids / neutrophils per milliliter in BAL fluids / reduction in absolute macrophage concentration (cells/mL) in BAL / reduction in absolute neutrophil concentration (cells/mL) in BAL: 24 hours post-LPS; for reduction in absolute macrophage concentration (cells/mL) in BAL / reduction in absolute neutrophil concentration (cells/mL) in BAL: 4 doses
Procedure: as §1, §2
A total of 100 cells (or the total number if less than 100) was counted, and the total percentage of each cell type and the number of cells per milliliter of BAL fluid were calculated.

[4] = system: LPS-induced pulmonary inflammation in male Swiss Webster mice; experiment: LPS-induced lung inflammation model, overall effect on disease parameters; conditions: daily oral treatment, 100 or 300 mg/kg
Text: as §1
Body weight measurements were collected and the animals were euthanized for necropsy and terminal sample collection on day 0 or day 1.

[5] = 3 mg/kg PO 1x 1 h pre-LPS, 6 hours post-LPS
[6] = 3 mg/kg PO 1x 1 h pre-LPS, 6 hours post-LPS, vs 6-hour vehicle disease control
[7] = 100 mg/kg PO QD days -2 to 0 (final dose 1 h pre-LPS), 6 hours post-LPS
[8] = 100 mg/kg PO QD days -2 to 0 (final dose 7 h post-LPS)
[9] = 100 mg/kg PO single dose 1 h post-LPS, 8 hours post-LPS
[10] = 300 mg/kg PO QD days -2 to 0 (final dose 7 h post-LPS)
[11] = 100 mg/kg PO QD, 6 hours post-LPS, vs 6-hour vehicle disease control
[12] = 100 mg/kg PO QD, 6 hours post-LPS, vs vehicle disease control
[13] = 300 mg/kg PO QD, 6 hours post-LPS, vs 6-hour vehicle disease control
[14] = 300 mg/kg PO QD, 6 hours post-LPS, vs vehicle disease control
[15] = 300 mg/kg PO QD, 24 hours post-LPS, vs 24-hour vehicle disease control
[16] = 300 mg/kg PO QD, 24 hours post-LPS, vs vehicle disease control

C[C@@H]1C[C@H]2[C@@H]3CCC4=CC(=O)C=C[C@]4(C)[C@@]3(F)[C@@H](O)C[C@]2(C)[C@@]1(O)C(=O)CO [dexamethasone, reference compound]
reduction in total nucleated cell counts in BAL [1, 5]: 63%
reduction in viable cells in BAL [1, 5]: 24%
reduction in interstitial inflammation score [2, 6]: 79%
reduction in neutrophil score [2, 6]: 79%
reduction in summed lung scores [2, 6]: 79%

O=C(O)CNC(=O)c1ncc(-c2cccc(Cl)c2)cc1O [Compound 1, {[5-(3-chlorophenyl)-3-hydroxypyridine-2-carbonyl]amino}acetic acid]
cell differentials in BAL fluids [3, 7]: did not differ statistically
macrophages per milliliter in BAL fluids [3, 8]: significantly reduced
neutrophils per milliliter in BAL fluids [3, 8]: significantly reduced
reduction in absolute macrophage concentration (cells/mL) in BAL ([3]; 100 mg/kg PO QD): 47%
reduction in absolute neutrophil concentration (cells/mL) in BAL ([3]; 100 mg/kg PO QD): 47%
relative lymphocyte counts in BAL fluids [3, 9]: significant increases
macrophages per milliliter in BAL fluids [3, 10]: significantly reduced
neutrophils per milliliter in BAL fluids [3, 10]: significantly reduced
reduction in absolute macrophage concentration (cells/mL) in BAL ([3]; 300 mg/kg PO QD): 65%
reduction in absolute neutrophil concentration (cells/mL) in BAL ([3]; 300 mg/kg PO QD): 63%
total nucleated cell counts in BAL fluids [1, 7]: did not differ statistically
reduction in total nucleated cell counts in BAL ([1]; 100 mg/kg PO QD, 4 doses, 24 hours post-LPS): 47%
total nucleated cell counts in BAL fluids [1, 9]: no significant differences
reduction in total nucleated cell counts in BAL ([1]; 300 mg/kg PO QD, 4 doses, 24 hours post-LPS): 63%
total nucleated cell counts in BAL fluids ([1]; 300 mg/kg PO single dose 1 h post-LPS, 8 hours post-LPS): no significant differences
reduction in interstitial inflammation score [2, 11]: 27%
reduction in neutrophil score [2, 11]: 27%
reduction in summed lung scores [2, 11]: 27%
interstitial inflammation score [2, 12]: Significantly reduced
neutrophil score (lung histopathology) [2, 12]: Significantly reduced
summed lung scores [2, 12]: Significantly reduced
lung histopathology ([2]; 100 mg/kg PO single dose 1 h post-LPS, vs vehicle disease control): no significant differences
reduction in interstitial inflammation score [2, 13]: 27%
reduction in neutrophil score [2, 13]: 27%
reduction in summed lung scores [2, 13]: 27%
interstitial inflammation score [2, 14]: Significantly reduced
neutrophil score (lung histopathology) [2, 14]: Significantly reduced
summed lung scores [2, 14]: Significantly reduced
reduction in interstitial inflammation score [2, 15]: 31%
reduction in neutrophil score [2, 15]: 31%
reduction in summed lung scores [2, 15]: 33%
interstitial inflammation score [2, 16]: Significantly reduced
neutrophil score (lung histopathology) [2, 16]: Significantly reduced
summed lung scores [2, 16]: Significantly reduced
lung histopathology ([2]; 300 mg/kg PO single dose 1 h post-LPS, vs vehicle disease control): no significant differences
lung histopathology scores ([2]; daily oral treatment, 100 or 300 mg/kg, 6 and 24 hours post-LPS, vs disease controls): significant improvements
peribronchiolar lymphoid inflammation widths ([2]; dose not stated (100 or 300 mg/kg groups, PO QD), 24 hours post-LPS, vs vehicle disease control): Slight decrease in peribronchiolar lymphoid inflammation widths at 24 hours post-LPS for mice treated with Compound 1 as compared to vehicle disease control mice, although statistically insignificant
effect on LPS-induced lung inflammation [4]: beneficial effects
